Results reported in PubChem BioAssay AID1460 (National Center for Advancing Translational Sciences (NCATS), 2008).
In all, about 270,000 compounds went through this assay and about 5,800 (2.1%) were called active. This list was built around the results that the source calls inconclusive (neither active nor inactive); the mix of calls is not that of the screen. The call rests on the fitted dose curve; in most records, active means well fitted inhibition curve with a large enough effect; inconclusive means small, poorly fitted or top-dose-only effect; inactive means flat fitted curve, though single readings scatter. Where the call is inconclusive, the potency comes from a doubtful curve fit.
Further: nearly all actives have a fitted effect of over 55% in size.
Potency means the concentration at half of the fitted maximal effect; tags describe the fitted curve by direction and shape.

What follows are compounds tested against Microtubule-associated protein tau (Homo sapiens) (UniProt P10636) (assay: qHTS for Inhibitors of Tau Fibril Formation, Thioflavin T Binding). Conditions: recombinant tau K18 P301L, heparin-induced fibrillization, ThT fluorescence; series mostly up to 57.4 µM.
UniProt P10636, sequence (P10636 whole entry, looked up): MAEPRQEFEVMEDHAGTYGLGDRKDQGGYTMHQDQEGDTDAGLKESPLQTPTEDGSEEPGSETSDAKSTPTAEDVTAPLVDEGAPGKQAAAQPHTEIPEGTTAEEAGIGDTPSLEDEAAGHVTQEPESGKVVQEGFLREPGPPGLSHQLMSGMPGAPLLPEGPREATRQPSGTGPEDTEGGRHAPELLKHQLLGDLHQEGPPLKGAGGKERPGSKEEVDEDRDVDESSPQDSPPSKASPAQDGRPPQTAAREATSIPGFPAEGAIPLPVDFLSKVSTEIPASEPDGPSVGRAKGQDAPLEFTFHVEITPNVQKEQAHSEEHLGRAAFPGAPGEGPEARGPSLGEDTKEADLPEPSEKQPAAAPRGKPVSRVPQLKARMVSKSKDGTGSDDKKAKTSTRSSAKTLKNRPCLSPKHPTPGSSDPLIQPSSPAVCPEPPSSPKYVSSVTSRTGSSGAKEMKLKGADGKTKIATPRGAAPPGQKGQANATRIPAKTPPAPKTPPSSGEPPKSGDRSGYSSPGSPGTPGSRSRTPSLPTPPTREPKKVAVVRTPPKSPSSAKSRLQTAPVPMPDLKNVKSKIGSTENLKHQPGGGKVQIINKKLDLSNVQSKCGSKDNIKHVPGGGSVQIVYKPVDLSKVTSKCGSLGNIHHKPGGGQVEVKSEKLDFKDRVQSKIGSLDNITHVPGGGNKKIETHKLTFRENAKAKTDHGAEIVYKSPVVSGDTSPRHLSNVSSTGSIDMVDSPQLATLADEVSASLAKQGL
How it was run: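 ThT emission at 510 nm, taken 1 hr after adding 30 uM dye, quantifies aggregates formed when 20 uM heparin acts on human tau K18 P301L for 6 hr at 37 C.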
With `OCCCNc1nc(-c2ccc(Br)cc2)nnc1-c1ccc(Cl)cc1` the Potency was inconclusive: 39.8 µM [inhibitor, single point]. With `COc1ccc(NC(=O)c2ccc(NCC3CCCO3)c([N+](=O)[O-])c2)cc1` (centres undefined) the Potency was active: 12.6 µM. In the case of `Oc1cc2c(cc1O)[C@@H]1c3ccc(O)c(O)c3OC[C@]1(O)C2`, the Potency is reported as active: 14.1 µM. `Cc1[nH]c(=S)sc1Cc1ccc(F)cc1` was tested, and the Potency was inconclusive: 31.6 µM [inhibitor, partial curve]. With `CCOC(=O)N1CCc2c(sc(NCc3cccs3)c2C(=O)Nc2cc(Cl)ccc2OC)C1` the Potency was inconclusive: 17.8 µM [inhibitor, partial curve]. With `S=C(NC1CCCC1)N1CCN(c2cccc(Cl)c2)CC1` the Potency was inconclusive: 31.6 µM [inhibitor, partial curve]. With `CCOC(=O)c1c(NC(=O)c2ccc(S(=O)(=O)N(CC(C)C)CC(C)C)cc2)sc2c1CCN(CC)C2` the Potency was “inactive”. For `COc1cccc(C(=O)Nc2ccc(N(C)C)cc2)c1OC`, the Potency was inconclusive: 15.8 µM [inhibitor, partial curve]. `Clc1ccccc1-c1nnc2sc(CCc3ccccc3)nn12` was tested, and the Potency was inconclusive: 39.8 µM [inhibitor, single point]. In the case of `CCOC(=O)Cn1nnnc1C(C(C)C)N(Cc1cccs1)Cc1cc2cc(C)ccc2[nH]c1=O` (centres undefined), the Potency is reported as inconclusive: 12.6 µM [inhibitor, partial curve]. In the case of `O=C(Nc1ccc(Cl)cc1Cl)N1CCN(c2ncccn2)CC1`, the Potency is reported as inconclusive: 39.8 µM [inhibitor, partial curve]. In the case of `C/C(=N\NC(=O)c1ccco1)c1ccc(NC(=O)c2cccs2)cc1`, the Potency is reported as inconclusive: 4.47 µM [inhibitor, full curve]. With `COc1ccc(Br)cc1/C=N/NC(=O)c1ccc(OC)c(OC)c1` the Potency was inconclusive: 5.01 µM [inhibitor, partial curve]. In the case of `S=c1[nH]nc(-c2cc(-c3ccco3)[nH]n2)n1-c1ccccc1`, the Potency is reported as “inactive”. `COc1cc(/C=C2\SC(=Nc3ccc(F)cc3)N(c3ccc(F)cc3)C2=O)ccc1OCC(=O)O` was tested, and the Potency was inconclusive: 10 µM [inhibitor, partial curve, poor fit]. With `Cc1ccc(C(=O)Nn2c(O)c(C=C3N=c4ccccc4=N3)sc2=S)cc1` the Potency was inconclusive: 3.55 µM [inhibitor, full curve]. In the case of `Oc1c(Cl)cc(Cl)cc1C=Nc1cc(C(F)(F)F)ccc1N1CCc2ccccc2C1`, the Potency is reported as active: 28.2 µM. `Cc1cc(C)c(Cn2c(=O)n(Cc3ccccc3)c(=O)c3c(C)c(C)sc32)c(C)c1` was tested, and the Potency was “inactive”. In the case of `Cc1ccnc(NS(=O)(=O)c2ccc(NC(=O)c3ccc([N+](=O)[O-])s3)cc2)n1`, the Potency is reported as inconclusive: 25.1 µM [inhibitor, single point].
